Source: the supplement of paper PMC10126150
Values marked as one replicate rest on one cluster of the flow cell; about a third of the high ones do not repeat.
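Note: ATP exposure 15 min at 22 °C before imaging.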

The sequences below were run on ATP (assay: switch fluorescence ratio, 500 uM ATP over buffer (Cy3 cluster intensity, sum of 5 cycles each) (fold (ratio)); higher = stronger signal-on switching upon ATP binding; sequences stand for … in TCGTCGGCAGCGTCAGATGTGTATAAGAGACAGTTTTTTTTTTTTTTTTTTTTTTTTT…TC). Details: aptamer strand: ATP DNA aptamer (quencher-CACCTGGGGGAGTATTGCGGAGGAAGG + anchor), 100 nM annealed; ATP concentration: 500 uM; one replicate.
In short: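 For every switch-domain sequence, the fluorescence ratio is the mean of per-cluster values, each being summed target-cycle Cy3 intensity over summed buffer-cycle Cy3 intensity. Clusters outside 100-1000 RFU were excluded. On a modified Illumina MiSeq flow-cell, the Cy3-labelled switching-strand clusters were annealed to 100 nM quencher-labelled ATP aptamer, imaged in selection buffer and then after 15 min with 500 uM ATP at 22 °C. Five such cycles were run, with NaOH stripping and re-annealing between them.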
In the case of TGAGACCAGC, the switch fluorescence ratio is reported as 1.06.
TGAGACCGCG gave a switch fluorescence ratio of 1.01.
In the case of TGAGAGAGCG, the switch fluorescence ratio is reported as 1.14.
TGAGAGCCCG was tested, and the switch fluorescence ratio was 1.01.
TGAGAGCGTT showed a switch fluorescence ratio of 0.943.
Work on TGAGAGGATT yielded a switch fluorescence ratio of 0.999.
TGAGCAACGT showed a switch fluorescence ratio of 1.5.
Work on TGAGCATAAG yielded a switch fluorescence ratio of 0.999.
With TGAGCATGAG the switch fluorescence ratio was 1.06.
In the case of TGAGCGGGCG, the switch fluorescence ratio is reported as 0.947.
With TGAGCTACAT the switch fluorescence ratio was 1.07.
TGAGCTATTT was tested, and the switch fluorescence ratio was 0.965.
Work on TGAGGAAAAA yielded a switch fluorescence ratio of 4.62.
TGAGGATAAC gave a switch fluorescence ratio of 0.998.
Sequence TGAGGCAACT has a switch fluorescence ratio of 1.1.
In the case of TGAGGCGCGT, the switch fluorescence ratio is reported as 1.
In the case of TGAGGCTGAG, the switch fluorescence ratio is reported as 1.02.
In the case of TGAGGGACGG, the switch fluorescence ratio is reported as 0.973.
TGAGGGAGAG was tested, and the switch fluorescence ratio was 0.97.
TGAGGGGAGC was tested, and the switch fluorescence ratio was 0.965.
TGAGGGTATG showed a switch fluorescence ratio of 0.965.
Work on TGAGGTAAGA yielded a switch fluorescence ratio of 0.988.
TGAGGTTTAA gave a switch fluorescence ratio of 1.01.
In the case of TGAGTACAC, the switch fluorescence ratio is reported as 0.978.
TGAGTACTCC was tested, and the switch fluorescence ratio was 1.01.
TGAGTAGCTA was tested, and the switch fluorescence ratio was 0.975.
In the case of TGAGTATCCA, the switch fluorescence ratio is reported as 1.
With TGAGTCGTGC the switch fluorescence ratio was 1.
Sequence TGAGTGATA has a switch fluorescence ratio of 0.941.
In the case of TGAGTGCTAT, the switch fluorescence ratio is reported as 0.947.
Sequence TGAGTTCTTA has a switch fluorescence ratio of 0.976.
With TGAGTTGGTG the switch fluorescence ratio was 1.01.
For TGATAATAAG, the switch fluorescence ratio was 1.02.
With TGATACCGGT the switch fluorescence ratio was 1.11.
Work on TGATACTAAA yielded a switch fluorescence ratio of 0.991.
In the case of TGATACTACC, the switch fluorescence ratio is reported as 1.32.
TGATAGATAA was tested, and the switch fluorescence ratio was 1.05.
TGATAGGAGA gave a switch fluorescence ratio of 1.04.
With TGATAGTGCC the switch fluorescence ratio was 1.04.
In the case of TGATAGTTAT, the switch fluorescence ratio is reported as 0.982.
For TGATAGTTTC, the switch fluorescence ratio was 0.993.
Sequence TGATATAATT has a switch fluorescence ratio of 1.03.
Work on TGATATGAGC yielded a switch fluorescence ratio of 0.946.
TGATCAATTT showed a switch fluorescence ratio of 0.909.
TGATCAGTTC was tested, and the switch fluorescence ratio was 1.07.
TGATCATCTG was tested, and the switch fluorescence ratio was 1.01.
TGATCCATCA was tested, and the switch fluorescence ratio was 0.999.
Sequence TGATCCCTGG has a switch fluorescence ratio of 1.03.
TGATCCGGTA showed a switch fluorescence ratio of 1.09.
In the case of TGATCCTGGT, the switch fluorescence ratio is reported as 0.989.
With TGATCGAAAG the switch fluorescence ratio was 1.01.
TGATCGATGC was tested, and the switch fluorescence ratio was 1.06.
For TGATCTGTT, the switch fluorescence ratio was 1.
TGATGAACTA showed a switch fluorescence ratio of 1.01.
Work on TGATGAGGCA yielded a switch fluorescence ratio of 0.951.
TGATGCAGTG showed a switch fluorescence ratio of 1.05.
TGATGGCGGC gave a switch fluorescence ratio of 1.05.
Sequence TGATGGGAA has a switch fluorescence ratio of 1.02.
TGATGTATCG gave a switch fluorescence ratio of 0.98.
In the case of TGATGTCCGC, the switch fluorescence ratio is reported as 1.42.
In the case of TGATTAGGTT, the switch fluorescence ratio is reported as 0.989.
Work on TGATTATTAG yielded a switch fluorescence ratio of 0.981.
With TGATTCCGG the switch fluorescence ratio was 0.975.
With TGATTCGTCG the switch fluorescence ratio was 1.
TGATTCTCCG showed a switch fluorescence ratio of 1.09.
TGATTGACTC gave a switch fluorescence ratio of 1.02.
TGATTGCATC was tested, and the switch fluorescence ratio was 0.989.
For TGATTGCTGT, the switch fluorescence ratio was 1.01.
Sequence TGATTGGAA has a switch fluorescence ratio of 1.02.
With TGATTGGCAG the switch fluorescence ratio was 0.964.
With TGATTTGTCC the switch fluorescence ratio was 1.02.
For TGCAAGAGGT, the switch fluorescence ratio was 1.03.
TGCAAGGTTC gave a switch fluorescence ratio of 1.08.
For TGCAATCAT, the switch fluorescence ratio was 1.15.
TGCAATTTGC was tested, and the switch fluorescence ratio was 1.
Work on TGCACATATC yielded a switch fluorescence ratio of 1.63.
Work on TGCACCCGGG yielded a switch fluorescence ratio of 1.01.
In the case of TGCACCTTCC, the switch fluorescence ratio is reported as 1.44.
For TGCACGCCGT, the switch fluorescence ratio was 1.07.
Sequence TGCACGCGGA has a switch fluorescence ratio of 0.999.
In the case of TGCACGGATT, the switch fluorescence ratio is reported as 1.08.
TGCACGGCGA was tested, and the switch fluorescence ratio was 1.06.
For TGCAGAAATG, the switch fluorescence ratio was 1.09.
Work on TGCAGAAGGA yielded a switch fluorescence ratio of 1.04.
With TGCAGATCCA the switch fluorescence ratio was 1.
TGCAGATGC showed a switch fluorescence ratio of 1.07.
With TGCAGGACGG the switch fluorescence ratio was 1.02.
Sequence TGCAGTAGAA has a switch fluorescence ratio of 0.95.
TGCAGTGGCC was tested, and the switch fluorescence ratio was 1.03.
TGCATATTTA showed a switch fluorescence ratio of 1.
For TGCATCTAGG, the switch fluorescence ratio was 0.994.
TGCATCTTGG showed a switch fluorescence ratio of 1.05.
Work on TGCATGAGTG yielded a switch fluorescence ratio of 1.02.
In the case of TGCATGATG, the switch fluorescence ratio is reported as 0.982.
With TGCATGTGCA the switch fluorescence ratio was 0.977.
Work on TGCATTCAAC yielded a switch fluorescence ratio of 1.04.
TGCCACAGAC showed a switch fluorescence ratio of 1.33.
TGCCACATGA was tested, and the switch fluorescence ratio was 0.971.
TGCCACCGCG showed a switch fluorescence ratio of 1.2.
With TGCCACTCCG the switch fluorescence ratio was 1.18.
Work on TGCCACTGAA yielded a switch fluorescence ratio of 1.07.
TGCCATTGAG gave a switch fluorescence ratio of 0.933.
For TGCCCAATCT, the switch fluorescence ratio was 1.07.
Work on TGCCCAGGGA yielded a switch fluorescence ratio of 1.29.
TGCCCCATGC was tested, and the switch fluorescence ratio was 1.24.
Work on TGCCCCCATT yielded a switch fluorescence ratio of 0.945.
With TGCCCCCCGG the switch fluorescence ratio was 0.999.
Work on TGCCCCCGTG yielded a switch fluorescence ratio of 1.73.
TGCCCCCTTG was tested, and the switch fluorescence ratio was 1.05.
For TGCCCCGGGG, the switch fluorescence ratio was 1.02.
TGCCGAAGGG gave a switch fluorescence ratio of 0.974.
For TGCCGATGGA, the switch fluorescence ratio was 0.994.
TGCCGCAATT showed a switch fluorescence ratio of 5.39.
TGCCGCGGGA showed a switch fluorescence ratio of 1.05.
For TGCCGGAGTC, the switch fluorescence ratio was 1.01.
In the case of TGCCGGGCAT, the switch fluorescence ratio is reported as 0.974.
With TGCCTATTAA the switch fluorescence ratio was 0.992.
TGCCTGCATA showed a switch fluorescence ratio of 0.992.
In the case of TGCCTGGTAA, the switch fluorescence ratio is reported as 0.965.
In the case of TGCCTGTAAC, the switch fluorescence ratio is reported as 1.05.
Sequence TGCCTTAGAT has a switch fluorescence ratio of 0.984.
In the case of TGCCTTGGCG, the switch fluorescence ratio is reported as 1.
Sequence TGCGAACTTT has a switch fluorescence ratio of 0.987.
TGCGAAGAAG was tested, and the switch fluorescence ratio was 0.99.
Work on TGCGACGGAT yielded a switch fluorescence ratio of 1.13.
In the case of TGCGACGGGA, the switch fluorescence ratio is reported as 1.05.
TGCGACTTT gave a switch fluorescence ratio of 1.01.
Work on TGCGAGCGAT yielded a switch fluorescence ratio of 1.08.
With TGCGAGTATG the switch fluorescence ratio was 0.977.
With TGCGATAGA the switch fluorescence ratio was 1.07.
TGCGCAAAAA showed a switch fluorescence ratio of 0.967.
TGCGCAGCTG was tested, and the switch fluorescence ratio was 1.02.
TGCGCATAA gave a switch fluorescence ratio of 1.14.
Work on TGCGCCAGAG yielded a switch fluorescence ratio of 1.04.
In the case of TGCGCCCACA, the switch fluorescence ratio is reported as 1.01.
TGCGCCCGTC was tested, and the switch fluorescence ratio was 1.01.
TGCGCCGGCC was tested, and the switch fluorescence ratio was 0.966.
TGCGCTATTA showed a switch fluorescence ratio of 1.03.
In the case of TGCGCTCGAG, the switch fluorescence ratio is reported as 0.982.
TGCGGACTGG showed a switch fluorescence ratio of 1.06.
TGCGGCGCTG showed a switch fluorescence ratio of 0.971.
TGCGGCTTGG showed a switch fluorescence ratio of 1.
For TGCGGGAGGC, the switch fluorescence ratio was 1.02.
Work on TGCGGGCAGG yielded a switch fluorescence ratio of 1.01.
TGCGGGCGTG was tested, and the switch fluorescence ratio was 0.972.
Sequence TGCGGGGTTC has a switch fluorescence ratio of 0.989.
For TGCGGGTCTG, the switch fluorescence ratio was 0.986.
In the case of TGCGTAACCG, the switch fluorescence ratio is reported as 1.01.
In the case of TGCGTCTTTT, the switch fluorescence ratio is reported as 0.966.
Sequence TGCGTGTGCT has a switch fluorescence ratio of 1.02.
Sequence TGCGTTTTTG has a switch fluorescence ratio of 0.968.
TGCTAAAAGT showed a switch fluorescence ratio of 1.01.
Work on TGCTACGGCA yielded a switch fluorescence ratio of 1.06.
In the case of TGCTACTGGG, the switch fluorescence ratio is reported as 0.933.
In the case of TGCTAGCAAG, the switch fluorescence ratio is reported as 1.04.
Sequence TGCTATATGA has a switch fluorescence ratio of 1.05.
TGCTCAATTA gave a switch fluorescence ratio of 1.03.
In the case of TGCTCGCCGT, the switch fluorescence ratio is reported as 1.11.
Work on TGCTCTCAGC yielded a switch fluorescence ratio of 0.983.
Work on TGCTGGGCGG yielded a switch fluorescence ratio of 1.01.
For TGCTTAAG, the switch fluorescence ratio was 1.03.
In the case of TGCTTATGAT, the switch fluorescence ratio is reported as 0.995.
TGCTTATTCC gave a switch fluorescence ratio of 1.08.
TGCTTCGGC gave a switch fluorescence ratio of 0.959.
With TGCTTCGGTC the switch fluorescence ratio was 1.01.
For TGCTTCTCCC, the switch fluorescence ratio was 1.26.
In the case of TGCTTGGAAG, the switch fluorescence ratio is reported as 1.02.
For TGCTTGGCCG, the switch fluorescence ratio was 1.02.
Work on TGCTTGTGGC yielded a switch fluorescence ratio of 1.01.
TGCTTGTTCC showed a switch fluorescence ratio of 1.04.
In the case of TGCTTTGGGC, the switch fluorescence ratio is reported as 0.972.
TGGAAAGTGC gave a switch fluorescence ratio of 1.04.
With TGGAACCGGC the switch fluorescence ratio was 1.17.
With TGGAACTAT the switch fluorescence ratio was 0.983.
TGGAAGACCT was tested, and the switch fluorescence ratio was 1.02.
TGGAAGACGC showed a switch fluorescence ratio of 1.01.
With TGGAAGAGTC the switch fluorescence ratio was 0.955.
With TGGAAGATTT the switch fluorescence ratio was 0.987.
TGGAATAGGA showed a switch fluorescence ratio of 1.03.
With TGGAATGTGG the switch fluorescence ratio was 1.
TGGACAGGG gave a switch fluorescence ratio of 1.
Sequence TGGACCCCCT has a switch fluorescence ratio of 1.36.
In the case of TGGACCTAGC, the switch fluorescence ratio is reported as 1.06.
TGGACGGGGG showed a switch fluorescence ratio of 0.99.
With TGGAGACAGT the switch fluorescence ratio was 0.979.
TGGAGACGGT gave a switch fluorescence ratio of 1.25.
TGGAGATGGT was tested, and the switch fluorescence ratio was 0.987.
TGGAGTCAC showed a switch fluorescence ratio of 1.05.
For TGGATAAAAT, the switch fluorescence ratio was 1.08.
TGGATACAGA showed a switch fluorescence ratio of 1.04.
For TGGATATGTA, the switch fluorescence ratio was 1.04.
TGGATATTG showed a switch fluorescence ratio of 0.989.
Sequence TGGATGACCT has a switch fluorescence ratio of 1.04.
With TGGATGCTTC the switch fluorescence ratio was 0.996.
TGGATGGGC was tested, and the switch fluorescence ratio was 1.03.
With TGGATTAGAC the switch fluorescence ratio was 1.01.
In the case of TGGATTGGTC, the switch fluorescence ratio is reported as 0.994.
TGGCAAAGCC was tested, and the switch fluorescence ratio was 1.01.
For TGGCAGAACT, the switch fluorescence ratio was 1.03.
For TGGCAGATCA, the switch fluorescence ratio was 0.99.
With TGGCATAAGC the switch fluorescence ratio was 1.01.
